Reference: PubChem BioAssay AID342 (DTP/NCI, 2004)
Some entries of the source have several records that differ or are many. They are shown here; other results are not. The source may hold further records. The records of an entry are repeated measurements across runs, samples, wells, individuals or studies. Brackets tell where a record comes from. The letters are not those of the source and start again with each entry.

Tested on: Swiss mice, Sarcoma 180 sc, mean tumor weight T/C
Experiment: NCI In Vivo Anticancer Drug Screen. Data for tumor model Sarcoma 180 (subcutaneous) in Swiss mice
Settings: endpoint: mean tumor weight, higher = larger tumour
Experimental: The antitumor activity of compounds was measured in mice bearing transplantable tumors. Survival or tumor size were measured and the results are expressed as the measurement made in the treated group (T) divided by the measurement made in the vehicle treated control group (C). The tumor model used in this assay is Sarcoma 180 (subcutaneous) in Swiss mice

[1] = dose: 1.0 mg/kg/injection, schedule: Q01DX007 (ip), vehicle: carboxymethylcellulose (CMC)
[2] = dose: 500.0 mg/kg/injection, schedule: Q01DX007 (ip), vehicle: saline

Nc1ncnc2c1ncn2C1OC(COCc2ccccc2)C(OCc2ccccc2)C1OCc1ccccc1 (configuration not stated)
T/C (dose: 80.0 mg/kg/injection, schedule: Q01DX007 (ip), vehicle: saline): 68 % of control and 95 % of control

Nc1nc(SCc2ccccc2)c2ncn(CCCl)c2n1
T/C (dose: 188.0 mg/kg/injection, schedule: Q01DX007 (ip), vehicle: carboxymethylcellulose (CMC)): 5 % of control and 73 % of control

CS(=O)(=O)OCCCCCOS(C)(=O)=O
T/C (dose: 25.0 mg/kg/injection, schedule: Q#A X014 (ip), vehicle: methylcellulose (MC)): 38 % of control and 83 % of control

Cn1cc(F)c(=O)[nH]c1=O
T/C (dose: 40.0 mg/kg/injection, schedule: Q01DX007 (ip), vehicle: carboxymethylcellulose (CMC)): 73 % of control and 123 % of control

O=C(O)c1cc(I)cc(I)c1O.OC1CCCC2CCC[N-]C12.[Cu+]
T/C [1]: 47 % of control and 96 % of control
T/C (dose: 2.0 mg/kg/injection, schedule: Q01DX007 (ip), vehicle: carboxymethylcellulose (CMC)): 50 % of control and 76 % of control
T/C (dose: 4.0 mg/kg/injection, schedule: Q01DX007 (ip), vehicle: carboxymethylcellulose (CMC)): 51 % of control and 90 % of control

CCOC(=O)CCCc1ccc(N/N=N/c2nc[nH]c2C(N)=O)cc1
T/C (dose: 93.0 mg/kg/injection, schedule: Q01DX007 (ip), vehicle: carboxymethylcellulose (CMC)): 47 % of control and 94 % of control

CN1CCc2cc3c(cc2C(=O)Cc2ccc4c(c2C1)OCO4)OCO3
T/C (dose: 12.5 mg/kg/injection, schedule: Q01DX007 (ip), vehicle: saline): 67 % of control and 97 % of control

O=C(Nc1ccc([N+](=O)[O-])cc1)Nc1ccc([N+](=O)[O-])cc1 (tested in a mixture with another compound)
T/C (dose: 280.0 mg/kg/injection, schedule: Q#A X014 (ip), vehicle: methylcellulose (MC)): 32 % of control, 69 % of control, 73 % of control

CC1CN1P(=O)(N1CCCC1)N1CC1C (configuration not stated)
T/C (dose: 7.0 mg/kg/injection, schedule: Q#A X014 (ip), vehicle: saline): 51 % of control and 89 % of control
T/C (dose: 10.5 mg/kg/injection, schedule: Q#A X014 (ip), vehicle: saline): 37 % of control and 69 % of control

CCCC(=O)OCC1OC(n2cnc3c(=S)nc[nH]c32)C(OC(=O)CCC)C1OC(=O)CCC (configuration not stated)
T/C (dose: 31.0 mg/kg/injection, schedule: Q01DX007 (ip), vehicle: carboxymethylcellulose (CMC)): 41 % of control, 64 % of control, 117 % of control
T/C (dose: 62.0 mg/kg/injection, schedule: Q01DX007 (ip), vehicle: carboxymethylcellulose (CMC)): 15 % of control, 45 % of control, 103 % of control
T/C (dose: 125.0 mg/kg/injection, schedule: Q01DX007 (ip), vehicle: carboxymethylcellulose (CMC)): 4 % of control, 45 % of control, 50 % of control

COC(=O)[C@H]1[C@H]2C[C@@H]3c4[nH]c5cc(OC)ccc5c4CCN3C[C@H]2C[C@@H](OC(=O)c2cc(OC)c(OC)c(OC)c2)[C@@H]1OC
T/C [1]: 32 % of control and 71 % of control
T/C (dose: 1.5 mg/kg/injection, schedule: Q01DX007 (ip), vehicle: carboxymethylcellulose (CMC)): 47 % of control and 100 % of control

CC(C)(C#N)C#N
T/C (dose: 250.0 mg/kg/injection, schedule: Q01DX007 (ip), vehicle: saline): 24 % of control, 31 % of control, 74 % of control
T/C [2]: 11 % of control and 56 % of control

CCC(=O)OCC1OC(n2cnc3c(=S)nc(N)[nH]c32)C(OC(=O)CC)C1OC(=O)CC (configuration not stated)
T/C (dose: 3.0 mg/kg/injection, schedule: Q01DX007 (ip), vehicle: carboxymethylcellulose (CMC)): 51 % of control and 92 % of control
T/C (dose: 10.0 mg/kg/injection, schedule: Q01DX007 (ip), vehicle: carboxymethylcellulose (CMC)): 11 % of control, 50 % of control, 56 % of control

CNC=O
T/C (dose: 50.0 mg/kg/injection, schedule: Q01DX007 (ip), vehicle: saline): 42 % of control, 102 % of control, 116 % of control
T/C (dose: 75.0 mg/kg/injection, schedule: Q01DX007 (ip), vehicle: saline): 38 % of control and 89 % of control
T/C (dose: 100.0 mg/kg/injection, schedule: Q01DX007 (ip), vehicle: saline): 11 % of control, 12 % of control, 57 % of control

CN(C)/N=N/c1nc[nH]c1C(N)=O
T/C (dose: 80.0 mg/kg/injection, schedule: Q01DX007 (ip), vehicle: carboxymethylcellulose (CMC)): 40 % of control and 78 % of control

O=C(O)CC[S-].[Ag+]
T/C (dose: 83.0 mg/kg/injection, schedule: Q#A X014 (ip), vehicle: methylcellulose (MC)): 49 % of control, 74 % of control, 110 % of control
T/C (dose: 125.0 mg/kg/injection, schedule: Q#A X014 (ip), vehicle: methylcellulose (MC)): 36 % of control, 55 % of control, 83 % of control

CCC(c1ccc(O)cc1)C(CC)c1ccc(OC)cc1 (configuration not stated)
T/C (dose: 0.65 mg/kg/injection, schedule: Q#A X014 (sc), vehicle: steriod suspending solution): 44 % of control and 99 % of control

O=C1C=CC(=Nc2ccc3c(c2)C(Br)c2ccccc2-3)O1 (configuration not stated)
T/C (dose: 25.0 mg/kg/injection, schedule: Q#A X014 (ip), vehicle: saline): 34 % of control and 80 % of control

C=CCNc1ccc(C)cc1
T/C (dose: 45.0 mg/kg/injection, schedule: Q01DX007 (ip), vehicle: carboxymethylcellulose (CMC)): 44 % of control and 92 % of control
T/C (dose: 70.0 mg/kg/injection, schedule: Q01DX007 (ip), vehicle: carboxymethylcellulose (CMC)): 26 % of control and 118 % of control

CCCCOP(=S)(N1CC1)N1CC1
T/C (dose: 3.3 mg/kg/injection, schedule: Q#A X014 (ip), vehicle: saline): 20 % of control and 53 % of control
T/C (dose: 5.0 mg/kg/injection, schedule: Q#A X014 (ip), vehicle: saline): 22 % of control and 53 % of control

CC(=O)OCC(=O)[C@@]1(O)[C@H](C)C[C@H]2[C@@H]3C=C(C)C4=Cc5c(cnn5-c5ccc(F)cc5)C[C@]4(C)[C@H]3[C@@H](O)C[C@@]21C
T/C (dose: 1.0 mg/kg/injection, schedule: Q01DX007 (sc), vehicle: steriod suspending solution): 59 % of control and 85 % of control
T/C (dose: 1.5 mg/kg/injection, schedule: Q01DX007 (sc), vehicle: steriod suspending solution): 35 % of control, 38 % of control, 93 % of control

c1ccc2nc3ccccc3c-2cc1
T/C [2]: 63 % of control and 102 % of control

Clc1[nH]nc2ccccc12
T/C (dose: 63.0 mg/kg/injection, schedule: Q#A X014 (ip), vehicle: methylcellulose (MC)): 45 % of control, 73 % of control, 91 % of control
T/C (dose: 95.0 mg/kg/injection, schedule: Q#A X014 (ip), vehicle: methylcellulose (MC)): 50 % of control, 63 % of control, 78 % of control
T/C (dose: 142.5 mg/kg/injection, schedule: Q#A X014 (ip), vehicle: methylcellulose (MC)): 39 % of control, 58 % of control, 68 % of control

C[C@]12CC[C@@H]3c4ccc(OC(=O)c5ccccc5)cc4CC[C@H]3[C@@H]1CC[C@@H]2O
T/C (dose: 500.0 mg/kg/injection, schedule: Q01DX007 (sc), vehicle: steriod suspending solution): 45 % of control, 76 % of control, 83 % of control
T/C (dose: 1000.0 mg/kg/injection, schedule: Q01DX007 (sc), vehicle: steriod suspending solution): 31 % of control, 51 % of control, 69 % of control

COc1cccc2c1C(=O)c1c(O)c3c(c(O)c1C2=O)C[C@@](O)(C(C)=O)C[C@@H]3OC1CC(N)C(O)C(C)O1 (some centres not stated)
T/C (dose: 3.0 mg/kg/injection, schedule: Q01DX007 (sc), vehicle: steriod suspending solution): 42 % of control [sample A] and 85 % of control [sample B]

O=c1[nH]cc(F)c(=O)[nH]1
T/C (dose: 4.7 mg/kg/injection, schedule: Q01DX007 (ip), vehicle: carboxymethylcellulose (CMC)): 66 % of control and 116 % of control
T/C (dose: 9.5 mg/kg/injection, schedule: Q01DX007 (ip), vehicle: carboxymethylcellulose (CMC)): 44 % of control and 98 % of control

O=C(O)C(O)C(F)(F)F (configuration not stated)
T/C (dose: 31.25 mg/kg/injection, schedule: Q#A X014 (ip), vehicle: saline): 80 % of control and 108 % of control

CC=C(/C(=C/C)c1ccc(O)cc1)c1ccc(O)cc1
T/C (dose: 42.0 mg/kg/injection, schedule: Q#A X014 (ip), vehicle: carboxymethylcellulose (CMC)): 15 % of control and 68 % of control
T/C (dose: 62.5 mg/kg/injection, schedule: Q#A X014 (ip), vehicle: carboxymethylcellulose (CMC)): 22 % of control and 65 % of control

O=[N+]([O-])c1ccc2c(N=Nc3c(O)ccc4ccccc34)c(O)cc(S(=O)(=O)O)c2c1
T/C (dose: 220.0 mg/kg/injection, schedule: Q01DX007 (ip), vehicle: saline): 48 % of control, 55 % of control, 160 % of control

CCN(CC)CCNc1ccc(C)c2sc3ccccc3c(=O)c12
T/C (dose: 39.0 mg/kg/injection, schedule: Q01DX007 (ip), vehicle: carboxymethylcellulose (CMC)): 61 % of control and 120 % of control
T/C (dose: 78.0 mg/kg/injection, schedule: Q01DX007 (ip), vehicle: carboxymethylcellulose (CMC)): 31 % of control and 77 % of control

CC(C)C(=O)OCC1OC(n2cnc3c(=S)nc(N)[nH]c32)C(OC(=O)C(C)C)C1OC(=O)C(C)C (configuration not stated)
T/C (dose: 14.0 mg/kg/injection, schedule: Q01DX007 (ip), vehicle: carboxymethylcellulose (CMC)): 18 % of control and 46 % of control

CC(=O)Nc1c(Cl)c(Cl)c2c(c1Cl)Cc1cc(Cl)c(Cl)cc1-2
T/C (dose: 375.0 mg/kg/injection, schedule: Q01DX007 (ip), vehicle: other): 20 % of control and 47 % of control
